# Measured values from the supplement of paper PMC8728848.
# The list shows a part of the results.
# B1: Epa15 (Candida glabrata) (protein)
# chain: MGSSHHHHHHSSGLVPRGSHMASDPTTFPLGCSPEFTKTKKGLSMELYRYDYLPPGSYPCWDSAYLNPSYPRTGYKAKKLIATVDGVSGDINFKFNPKFGCKAIPDYLPSNFNYHEPITITNFTMILYGYFMPKTTAFHTFYVTADDLLFMNFGAGNAFDCCRREETADKFGNYAAYSVWGKKSLKNELTVYLHTGVYYPIRLFYNNRDYIAQLDIRFKTEHSNAIITNFTDYFYSVDDSSLGCPGLI
# Experiments:
# Assay in all cases: glycan array binding signal (z-score within array); higher = stronger binding
# Conditions in all cases: glycan notation: IUPAC condensed, linker removed
# [1] = molecular target: Gal3S(b1-4)[Fuc(a1-3)]GlcNAc
# How it was run: (§1)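 Negative Z-scores can be read as non-binding. The Z-score is calculated within each array and then averaged across arrays of one protein sequence at different concentrations or buffers and across linkers. Arrays, 3228 in all, were curated from the Consortium for Functional Glycomics database and kept only where the protein sequence was available.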
# [2] = molecular target: Gal3S(b1-4)[Fuc(a1-3)]GlcNAc6S
# How it was run: as §1
# [3] = molecular target: Gal3S4S(b1-4)GlcNAc
# How it was run: as §1
# [4] = molecular target: Gal3S6S(b1-4)GlcNAc
# How it was run: as §1
# [5] = molecular target: Gal3S6S(b1-4)GlcNAc6S
# How it was run: as §1
# [6] = molecular target: Gal4S(b1-4)GlcNAc
# How it was run: as §1
# [7] = molecular target: Gal4S6S(b1-4)GlcNAc
# How it was run: as §1
# [8] = molecular target: Gal6P(b1-4)GlcNAc
# How it was run: as §1
# [9] = molecular target: Gal6S(b1-3)GlcNAc
# How it was run: as §1
# [10] = molecular target: Gal6S(b1-3)GlcNAc6S
# How it was run: as §1
# [11] = molecular target: Gal6S(b1-4)Glc
# How it was run: as §1
# [12] = molecular target: Gal6S(b1-4)Glc6S
# How it was run: as §1
# [13] = molecular target: Gal6S(b1-4)GlcNAc
# How it was run: as §1
# [14] = molecular target: Gal6S(b1-4)GlcNAc6S
# How it was run: as §1
# [15] = molecular target: GalNAc(a1-3)Gal
# How it was run: as §1
# [16] = molecular target: GalNAc(a1-3)GalNAc
# How it was run: as §1
# [17] = molecular target: GalNAc(a1-3)GalNAc(b1-3)Gal(a1-4)Gal(b1-4)Glc
# How it was run: as §1
# [18] = molecular target: GalNAc(a1-3)GalNAc(b1-3)Gal(a1-4)Gal(b1-4)GlcNAc
# How it was run: as §1
# [19] = molecular target: GalNAc(b1-3)Gal
# How it was run: as §1
# [20] = molecular target: GalNAc(b1-3)Gal(a1-4)Gal(b1-4)GlcNAc
# How it was run: as §1
# [21] = molecular target: GalNAc(b1-3)Gal(a1-4)Gal(b1-4)GlcNAc(b1-3)Gal(b1-4)Glc
# How it was run: as §1
# [22] = molecular target: GalNAc(b1-3)Gal(a1-6)Gal(b1-4)Glc
# How it was run: as §1
# [23] = molecular target: GalNAc(b1-3)GalNAc
# How it was run: as §1
# [24] = molecular target: GalNAc(b1-3)GlcNAc
# How it was run: as §1
# [25] = molecular target: GalNAc(b1-4)Gal(b1-4)Glc
# How it was run: as §1
# [26] = molecular target: GalNAc(b1-4)GlcNAc
# How it was run: as §1
# [27] = molecular target: GalNAc(b1-4)GlcNAc(b1-2)Man
# How it was run: as §1
# [28] = molecular target: GalNAc(b1-4)GlcNAc(b1-2)Man(a1-3)[GalNAc(b1-4)GlcNAc(b1-2)Man(a1-6)]Man(b1-4)GlcNAc(b1-4)GlcNAc
# How it was run: as §1
# [29] = molecular target: GalNAc(b1-4)GlcNAc(b1-3)GalNAc(b1-4)GlcNAc
# How it was run: as §1
# [30] = molecular target: GalNAc(b1-4)GlcNAc6S
# How it was run: as §1
# [31] = molecular target: GalNAc(b1-6)GalNAc
# How it was run: as §1
# [32] = molecular target: GalNAc3S(b1-4)GlcNAc
# How it was run: as §1
# [33] = molecular target: GalNAc3S(b1-4)GlcNAc3S
# How it was run: as §1
# [34] = molecular target: GalNAc3S(b1-4)[Fuc(a1-3)]GlcNAc
# How it was run: as §1
# [35] = molecular target: GalNAc4S6S(b1-4)GlcNAc
# How it was run: as §1
# [36] = molecular target: GalNAc6S(b1-4)GlcNAc
# How it was run: as §1
# [37] = molecular target: Glc(a1-4)Glc
# How it was run: as §1
binder,measurement,setting,value
B1,glycan array binding signal (z-score),[1],-0.5
same,glycan array binding signal (z-score),[2],-0.339
same,glycan array binding signal (z-score),[3],-0.528
same,glycan array binding signal (z-score),[4],-0.392
same,glycan array binding signal (z-score),[5],0.975
same,glycan array binding signal (z-score),[6],-0.451
same,glycan array binding signal (z-score),[7],-0.414
same,glycan array binding signal (z-score),[8],-0.465
same,glycan array binding signal (z-score),[9],2.78
same,glycan array binding signal (z-score),[10],0.488
same,glycan array binding signal (z-score),[11],1.17
same,glycan array binding signal (z-score),[12],4.58
same,glycan array binding signal (z-score),[13],1.8
same,glycan array binding signal (z-score),[14],10.6
same,glycan array binding signal (z-score),[15],-0.394
same,glycan array binding signal (z-score),[16],-0.348
same,glycan array binding signal (z-score),[17],-0.485
same,glycan array binding signal (z-score),[18],-0.529
same,glycan array binding signal (z-score),[19],-0.245
same,glycan array binding signal (z-score),[20],0.652
same,glycan array binding signal (z-score),[21],-0.13
same,glycan array binding signal (z-score),[22],-0.334
same,glycan array binding signal (z-score),[23],-0.576
same,glycan array binding signal (z-score),[24],-0.183
same,glycan array binding signal (z-score),[25],-0.393
same,glycan array binding signal (z-score),[26],-0.222
same,glycan array binding signal (z-score),[27],0.71
same,glycan array binding signal (z-score),[28],0.423
same,glycan array binding signal (z-score),[29],0.149
same,glycan array binding signal (z-score),[30],0.285
same,glycan array binding signal (z-score),[31],-0.579
same,glycan array binding signal (z-score),[32],-0.521
same,glycan array binding signal (z-score),[33],-0.363
same,glycan array binding signal (z-score),[34],-0.141
same,glycan array binding signal (z-score),[35],-0.327
same,glycan array binding signal (z-score),[36],-0.263
same,glycan array binding signal (z-score),[37],-0.44
